# Screen size: about 410,000 compounds; about 7,200 (1.8%) were called active. Inconclusive means that the source gave no clear call. Such entries were picked first, then a sample of the others. Calls follow the shape of the dose curve; as a rule, active = well fitted activation curve with a large enough effect; inconclusive = small, poorly fitted or top-dose-only effect, or another doubt; inactive = no such curve, though single readings can be large or run the other way. No potency is given beside an inconclusive call; the fits are too rough.
# Assay: qHTS of TDP-43 Inhibitors; also: nearly all actives have a fitted effect of over 50% in size; as to growth rescue (activation): % of control where 0% means no effect
# Details: TDP-43 expressing yeast growth rescue, BacTiter-Glo, 24 h; growth rescue (activation): at 46.1 µM (top of the series) unless noted
# Method in brief: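 Readout is BacTiter-Glo luminescence of cell growth, so inhibitors register as activators. TDP-43-expressing yeast at OD600=0.02 in galactose medium, after raffinose pregrowth to mid-log, were incubated with compound for 24 hr at 30 deg C.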
# Potency is read from the fitted curve at half-maximal effect; tags tell the direction and shape of the fitted curve.
SMILES,Potency,growth rescue (activation)
Cc1cccc(N2C(=O)CN(Cc3ccccc3)C2=S)c1,"inconclusive [activator, single point]",
COc1ccc(CN(C(C)=O)c2cccc(C)c2C)cc1,"inconclusive [activator, single point]",
COC(=O)c1ccccc1NC(=O)/C=C/c1cc(OC)c(OC)c(OC)c1,,inactive: 5.9%
COc1ccc(-c2noc(CCC(=O)NCCc3cccc(C)c3)n2)cc1,"inconclusive [activator, partial curve]",
O=C(NCCc1ccccc1)c1ccc2nc(N3CCOCC3)sc2c1,"inconclusive [activator, partial curve]",
CC(=O)CCc1oc2ccccc2c1-c1ccccc1,"inconclusive [activator, single point]",
Cc1ccc(-c2c(C(=O)N(C)Cc3ccccc3)oc(=O)c3ccccc23)cc1,active: 12.6 µM,
COc1ccc(C(=O)c2c(C(F)(F)F)oc3c2C(=O)c2ccccc2C3=O)cc1OC,"inconclusive [activator, single point]",
CC(=O)Nc1ccc(NC(=S)NC(=O)C2CC2)cc1,,inactive: -17.5%
C=CCn1c(SCC(=O)Nc2sccc2C(N)=O)nc2sc(CC)cc2c1=O,,inactive: 27.5%
c1ccc2oc(-c3csc(N4CCOCC4)n3)cc2c1,"inconclusive [activator, full curve]",
Cc1nn2c(=O)cc(COC(=O)C(c3ccccc3)c3ccccc3)nc2s1,"inconclusive [activator, partial curve]",
CCOC(=O)c1c(NC(=O)c2c(Br)cnn2C)c(C#N)nn1-c1ccccc1,"inconclusive [activator, single point]",
O=[N+]([O-])c1cccc(-c2ccc(CN3CCN(c4ccccc4)CC3)o2)c1,"inconclusive [activator, full curve, poor fit]",
CC(=O)N=c1sc2nc3ccccc3nc2n1N(C(C)=O)C(C)=O,,inactive: 27.7%
CC(=O)N1N=C(c2ccc([N+](=O)[O-])cc2)CC1c1ccccc1Cl (centres undefined),"inconclusive [activator, single point]",
Cc1nc2c(cc1C#N)C(=O)c1ccccc1-2,"inconclusive [activator, single point]",
Cc1cccc(-c2nc(C)c(CCNC(=O)c3cccs3)s2)c1,active: 15.8 µM,
CC(C)c1ccc(NC(=O)CCNS(=O)(=O)c2ccc3c(c2)oc(=O)n3C)cc1,,inactive: 17%
O=C(CCS(=O)(=O)c1nc(-c2ccc3c(c2)OCO3)cc(C(F)(F)F)n1)Nc1ccc(F)cc1F,active: 12.6 µM,
CCNC(=S)N(CCc1ccccc1C)Cc1cc2cc(OC)c(OC)cc2[nH]c1=O,,inactive: -0.494%
COc1ccc([C@H]2/C=C\CN(C(=O)c3ccc(C)cc3)[C@@H](C)C(=O)N2Cc2ccc(F)cc2)cc1,,inactive: 7.52%
C/C(Cc1ccccc1)=N\NC(=O)c1cc(C(C)(C)C)[nH]n1,,inactive: 17.3%

SMILES,Potency,growth rescue (activation)
O=C(Nc1ccc(Cl)cc1Cl)c1ccc2c(c1)OCCO2,"inconclusive [activator, partial curve]",
O=C1c2cnc3nc(SCc4ccc(Cl)cc4)nn3c2CC2c3ccccc3CCN12 (centres undefined),"inconclusive [activator, single point]",
COCCN(C(=S)Nc1c(C)cccc1C)C(C)c1ccco1 (centres undefined),,inactive: 6.36%
CC1COc2ccccc2N1C(=O)c1ccc(Cl)cc1 (centres undefined),"inconclusive [activator, partial curve]",
O=C(N/N=C/C(Br)=C/c1ccccc1)NC1CCCCC1,"inconclusive [activator, single point]",
Cc1ccccc1Cn1c(C)c(C(=O)N(C)Cc2ccc(F)cc2)sc1=O,,inactive: 11.9%
CCCc1cc(C(=O)Cc2ccc(F)cc2)c(O)cc1O,"inconclusive [activator, partial curve]",
O=C(c1ccccc1NS(=O)(=O)c1ccc([N+](=O)[O-])cc1[N+](=O)[O-])N1O[C@@H]2C=C[C@H]1C2,"inconclusive [activator, partial curve]",
S=c1[nH]nc(-c2ccc(Cl)cc2)n1/N=C/C=C/c1ccco1,,inactive: -20.6% [at 1.82 µM]
COc1ccc(-c2nc3ccc(Cl)cn3c2NC2CCCCC2)cc1SC1CCCCC1,"inconclusive [activator, partial curve]",
C=CCNC(=S)N1CCC2CC1c1c(Cl)cccc12 (centres undefined),,inactive: 26.7%
COc1cccc(C2=NOC(C(=O)Nc3ccc(C(C)=O)cc3)C2)c1 (centres undefined),"inconclusive [activator, single point]",
Cc1nn(C)c(C(=O)NCc2ccc(Cl)cc2)c1Cl,"inconclusive [activator, partial curve]",
Cc1ccnc(NC(=S)NC(=O)c2ccco2)c1,"inconclusive [activator, single point]",
Cc1ccc2c(Cl)cc(Cl)c(OCC(=O)OCC(=O)Nc3ccc(C#N)cc3)c2n1,"inconclusive [activator, partial curve]",
O=C(Cc1ccc(-c2ccccc2)cc1)Nc1ncccc1O,"inconclusive [activator, partial curve]",
COc1ccc(NC(=O)C[C@H]2C(=O)N(Cc3ccccc3)C[C@@H]2Cc2ccccc2)cc1,"inconclusive [activator, partial curve, poor fit]",
CC(CC(=O)NCc1ccc(Cl)cc1Cl)CC1=NS(=O)(=O)c2ccccc2N1 (centres undefined),,inactive: -0.609%
Cc1cccc(OCCNc2cc(N3CCOCC3)ccc2[N+](=O)[O-])c1,"inconclusive [activator, single point]",
COc1ccc(CCNC(=O)c2cc(=O)c3c(C)cc(C)cc3o2)cc1OC,,inactive: 1.87%
O=C(O)c1ccc(NCc2ccc3c(c2)OCO3)cc1,"inconclusive [activator, partial curve]",
Brc1ccc2c(c1)NC(c1cccnc1)=NC(c1ccccc1)=N2,active: 35.5 µM,
CCOc1ccc(NC(=S)N2CCC(C(=O)c3ccc(OC)cc3)CC2)cc1,"inconclusive [activator, partial curve]",

SMILES,Potency,growth rescue (activation)
COC(=O)[C@@]1(Cc2ccc(F)cc2)[C@H]2c3cc(C(=O)N(C)C)n(CCF)c3C[C@H]2CN1C(=O)c1ccccc1,"inconclusive [activator, partial curve]",
COCc1c(C(=O)NCCc2ccc(OC(F)F)cc2)oc2ccccc12,"inconclusive [activator, partial curve]",
Cc1ccccc1NC1=NC(=S)N(c2ccccc2)C12CCCCC2,"inconclusive [activator, partial curve]",
O=C(CSc1nc2cc(Cl)ccc2s1)NC1CCCc2ccccc21 (centres undefined),"inconclusive [activator, full curve, poor fit]",
Cc1cc(C)n(-c2ccc(C(=O)OCC(=O)Nc3cc(S(C)(=O)=O)ccc3Cl)cc2)n1,"inconclusive [activator, partial curve]",
COc1cc(C(=O)Nc2ccc(-c3nc4ccccc4o3)c(O)c2)cc(OC)c1OC,,inactive: 8.48%
COc1ccc(-c2onc(C)c2C)cc1S(=O)(=O)Nc1cc(Cl)ccc1C,,inactive: 15.8%
CC(Oc1ccc2c3c(c(=O)oc2c1)CCCC3)C(=O)NCCCn1ccnc1 (centres undefined),,inactive: 20.9%
COc1ccc(C(C)=O)cc1CSc1nnc(Nc2ccccc2C)s1,"inconclusive [activator, single point]",
Cc1ccc(CNc2ncnc3onc(C)c23)cc1,"inconclusive [activator, single point]",
Clc1ccc(-c2csc(-c3ccncc3)n2)cc1,"inconclusive [activator, partial curve]",
O=C(NCc1ccco1)c1nn2c(C(F)(F)F)cc(-c3cccs3)nc2c1Br,"inconclusive [activator, partial curve]",
CC(C)(C)OC(=O)N1CCc2onc(-c3ccc(Cl)cc3)c2C1=O,"inconclusive [activator, partial curve, poor fit]",
CN(C(=O)c1ccc(Br)o1)C1CCCCC1,"inconclusive [activator, partial curve, poor fit]",
CCCc1nnn(S(=O)(=O)c2ccc([N+](=O)[O-])cc2)c1CCC,"inconclusive [activator, partial curve, poor fit]",
CCCOc1ccc(NC(=O)CC2C(=O)N(c3ccc(F)cc3)C(=O)N2CC(C)C)cc1 (centres undefined),,inactive: 1.89%
O=c1c2ccccc2n(Cc2c(F)cccc2Cl)c(=O)n1Cc1ccccc1,,inactive: 3.07%
O=S(=O)(NCC(c1ccccc1)N1CCc2ccccc21)c1ccccc1 (centres undefined),"inconclusive [activator, partial curve]",
Cc1nc(-c2ccc(S(=O)(=O)NCc3ccc(OC(C)C)cc3)cc2)co1,"inconclusive [activator, partial curve, poor fit]",
O=C(COc1ccccc1F)Nc1ccc2nc(SCC(=O)N3CCCC3)sc2c1,,inactive: 12%
Cc1ccsc1C(=O)N1CCC1(C)C(=O)NS(=O)(=O)c1ccc(Br)cc1 (centres undefined),"inconclusive [activator, partial curve]",
CCn1cc(C(=O)NCCc2ccc(Cl)cc2)c(=O)c2cc(S(=O)(=O)N3CCCCCC3)ccc21,"inconclusive [activator, partial curve]",
O=C(c1cccs1)N1CCC(c2ccccc2)C1 (centres undefined),"inconclusive [activator, single point]",
